By IC50 is meant the dose at which the fit gives 50% viability; fits outside the tested doses are given as limits. For AUC the same curve is integrated over the 256-fold range of doses and scaled to a fraction; the more sensitive the line, the further below 1. An inferred top dose comes from the curve model; the source does not state it. Drugs with an entry number were screened twice under separate entries, and the two screens often disagree.
Compound: CCCS(=O)(=O)Nc1ccc(F)c(C(=O)c2c[nH]c3ncc(Cl)cc23)c1F [PLX4720]
Assay: Viability of human cancer cell lines after 72 h of drug (GDSC screen)
Settings: top dose 10 µM
Procedure: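 Human cancer cell lines in 384-well plates, medium with 10% serum, drug for 72 h over a 256-fold dose range (nine 2-fold or five 4-fold steps up to the top dose). Adherent lines were fixed and stained with the nucleic acid dye Syto60, suspension lines read with resazurin; signal relative to control wells, capped at 0 and 100%. One two-parameter sigmoid per drug and line, fitted in a mixed model over all curves with the slope shared within a line.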

[1] = screen: GDSC drug entry 1371, top dose inferred

Cell Line	AUC (screen: GDSC drug entry 1036)	IC50 (screen: GDSC drug entry 1036) [µM]	AUC [1]	IC50 [1] [µM]
A549 (lung adenocarcinoma, adherent)	0.917	> 10	0.953	> 10
BALL-1 (B-cell leukaemia, suspension)	0.985	> 10	0.989	> 10
BT-549 (breast, adherent)	0.979	> 10	0.962	> 10
CL-34 (large intestine, adherent)	0.811	6.01	0.792	5.07
CL-40 (large intestine, adherent)	0.976	> 10	0.95	> 10
CML-T1 (chronic myeloid leukaemia, suspension)	0.907	9.65	0.921	> 10
COR-L32 (small cell lung carcinoma, suspension)			0.963	> 10
DIFI (large intestine, adherent)	0.979	> 10	0.986	> 10
H2810 (mesothelioma, adherent)			0.984	> 10
HCC-366 (non-small cell lung carcinoma, adherent)	0.978	> 10	0.976	> 10
IGROV-1 (ovary, adherent)	0.94	> 10	0.946	> 10
JEKO-1 (B-cell lymphoma, suspension)	0.862	7.99	0.93	> 10
JHOS-4 (ovary, adherent)	0.978	> 10	0.952	> 10
Jurkat (T-cell leukaemia, suspension)	0.989	> 10	0.968	> 10
KARPAS-1106P (B-cell lymphoma, suspension)	0.99	> 10	0.991	> 10
KATOIII (stomach, semi-adherent)	0.938	> 10	0.986	> 10
KNS-62 (lung squamous cell carcinoma, adherent)	0.808	8.33	0.886	> 10
MEL-HO (melanoma, adherent)	0.434		0.579	1.03
MHH-CALL-2 (B-cell leukaemia, suspension)	0.979	> 10	0.997	> 10

Cell Line	AUC (screen: GDSC drug entry 1036)	IC50 (screen: GDSC drug entry 1036) [µM]	AUC [1]	IC50 [1] [µM]
MKN7 (stomach, adherent)	0.978	> 10	0.975	> 10
MM1S (myeloma, suspension)	0.987	> 10		
MOLM-16 (acute myeloid leukaemia, suspension)	0.828	5.19	0.944	> 10
MOLT-16 (T-cell lymphoblastic leukaemia, suspension)	0.967	> 10	0.93	> 10
NCC010 (kidney, adherent)	0.974	> 10	0.952	> 10
NCI-H146 (small cell lung carcinoma, suspension)	0.986	> 10	0.993	> 10
NCI-H508 (large intestine, semi-adherent)	0.75	5.55	0.953	> 10
NCI-H835 (lung carcinoid, suspension)	0.988	> 10	0.99	> 10
NCI-H929 (myeloma, suspension)	0.964	> 10	0.985	> 10
NCI-H1105 (small cell lung carcinoma, suspension)	0.993	> 10	0.993	> 10
NCI-H1341 (small cell lung carcinoma, suspension)	0.989	> 10	0.983	> 10
NCI-H2066 (small cell lung carcinoma, adherent)	0.975	> 10	0.977	> 10
NCI-N87 (stomach, adherent)	0.972	> 10	0.976	> 10
OCI-LY7 (B-cell lymphoma, suspension)	0.819	3.77		
PWR-1E (prostate, adherent)	0.967	> 10	0.986	> 10
RCH-ACV (B-cell leukaemia, suspension)	0.96	> 10	0.978	> 10
RH-18 (rhabdomyosarcoma, adherent)	0.891	> 10	0.976	> 10
SK-GT-2 (stomach, adherent)	0.942	> 10	0.979	> 10
SK-MEL-31 (melanoma, adherent)	0.935	> 10	0.926	> 10

— the supplement of paper PMC4967469
